Measurements published in patent US20150299322A1 (Dana-Farber, published 2015).

Molecular target: T1, mouse RGMb (mRGMb) expressed on transfected cells (mouse, UniProt Q7TQ33 49-415)
T1 construct: whole, on cells; Also used for mRGMb in cell lysates (Western blot); also called DRAGON; 300-mRGMb cells
T1 sequence (looked up): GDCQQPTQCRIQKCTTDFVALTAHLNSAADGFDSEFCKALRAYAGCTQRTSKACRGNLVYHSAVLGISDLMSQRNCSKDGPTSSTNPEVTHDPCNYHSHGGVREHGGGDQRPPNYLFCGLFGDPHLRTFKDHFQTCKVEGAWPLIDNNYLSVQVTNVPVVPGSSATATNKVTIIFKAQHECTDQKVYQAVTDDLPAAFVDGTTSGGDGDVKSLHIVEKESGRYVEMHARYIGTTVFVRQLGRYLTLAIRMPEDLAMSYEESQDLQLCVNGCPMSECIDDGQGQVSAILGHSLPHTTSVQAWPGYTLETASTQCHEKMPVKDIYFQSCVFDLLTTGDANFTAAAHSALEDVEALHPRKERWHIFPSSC
Experiment: figure legend of FIGS. 1A-1R (flow cytometry, ELISA, cell conjugation)

- binding result: no binding
B1: mouse PD-L1 (mPD-L1) expressed on transfected 300 cells (ligand)
chain: not shown
notes: whole, on cells; also called 300-mPDL 1; mPD-L1 cells
